Out of some 310,000 compounds screened, about 2,200 (0.71%) showed an effect of 50% or more. Effects have a minus sign here. Some of the results follow.

The text below walks through data of article PMC4336329 (PLoS ONE, 2015).

human ether-à-go-go-related gene (hERG) potassium channel, sequence (Q12809 whole entry, looked up): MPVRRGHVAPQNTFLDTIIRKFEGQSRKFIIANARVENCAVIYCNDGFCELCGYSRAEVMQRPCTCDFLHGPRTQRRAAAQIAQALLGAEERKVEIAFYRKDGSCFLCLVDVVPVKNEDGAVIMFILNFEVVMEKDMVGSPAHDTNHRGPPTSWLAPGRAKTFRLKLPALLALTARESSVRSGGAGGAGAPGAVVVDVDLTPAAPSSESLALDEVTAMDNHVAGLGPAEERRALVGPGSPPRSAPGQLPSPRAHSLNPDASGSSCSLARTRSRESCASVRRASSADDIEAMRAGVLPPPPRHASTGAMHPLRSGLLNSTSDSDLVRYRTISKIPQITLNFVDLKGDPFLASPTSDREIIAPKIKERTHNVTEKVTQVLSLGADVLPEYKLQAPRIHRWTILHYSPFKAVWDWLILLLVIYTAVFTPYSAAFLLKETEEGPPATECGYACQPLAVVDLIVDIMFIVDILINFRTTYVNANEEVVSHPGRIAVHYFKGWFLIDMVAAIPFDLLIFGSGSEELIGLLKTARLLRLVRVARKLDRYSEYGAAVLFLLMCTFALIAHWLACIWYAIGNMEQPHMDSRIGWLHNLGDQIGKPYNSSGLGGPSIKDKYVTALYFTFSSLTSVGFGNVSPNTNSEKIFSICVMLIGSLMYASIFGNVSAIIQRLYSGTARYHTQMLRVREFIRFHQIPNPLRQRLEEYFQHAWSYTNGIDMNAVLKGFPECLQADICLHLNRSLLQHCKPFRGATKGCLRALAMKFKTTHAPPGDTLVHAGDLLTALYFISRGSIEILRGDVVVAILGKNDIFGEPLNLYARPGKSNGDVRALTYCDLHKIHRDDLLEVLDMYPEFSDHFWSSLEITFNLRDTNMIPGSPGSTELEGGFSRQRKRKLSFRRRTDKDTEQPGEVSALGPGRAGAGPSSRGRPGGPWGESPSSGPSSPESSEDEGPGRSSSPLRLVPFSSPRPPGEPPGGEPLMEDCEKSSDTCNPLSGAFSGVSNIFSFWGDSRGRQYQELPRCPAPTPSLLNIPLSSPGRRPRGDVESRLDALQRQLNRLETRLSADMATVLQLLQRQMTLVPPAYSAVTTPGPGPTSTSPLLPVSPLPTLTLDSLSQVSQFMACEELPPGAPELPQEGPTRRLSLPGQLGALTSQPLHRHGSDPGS

This test addresses human ether-à-go-go-related gene (hERG) potassium channel (human, UniProt Q12809). The test is described as follows: primary screen, population patch clamp on CHO cells stably expressing hERG.
`Cc1ccccc1NC(=O)c1ccc(S(=O)(=O)N2CCCC2)cc1`: the “hERG current change (%, negative = inhibition) at 1uM” value is 10%. Regarding `Cc1c(C(=O)NN2CCOCC2)cccc1[N+](=O)[O-]`, the “hERG current change (%, negative = inhibition) at 1uM” value is recorded as 10.5%. Under `CC(C)(C)n1nc2c(c1NC(=O)c1cccs1)CS(=O)C2` (stereo not shown) stands 20.4%; under `C/C(N)=C(/C#N)C(=O)COC(=O)c1cc(-c2ccc(C)cc2)nc2ccccc12`, 21.2%. The same measure for `Cc1cc(C)cc(NC(=O)COC(=O)Cn2cnc3c2c(=O)n(C)c(=O)n3C)c1`: -12.4%; for `CCCOc1ccc2oc(=O)c3c(c2c1)CCCN3C(=O)CN1CCN(C(=O)c2ccco2)CC1`: -20.3%.

For `CCCCCn1c(=O)[nH]c2cc(C(=O)NCCN3CCC(C)CC3)ccc2c1=O`, the “hERG current change (%, negative = inhibition) at 1uM” value worked out at 0.349%. Under `Cc1cc(C)cc(C(=O)NCCC(=O)N2CCC3(CC2)NCCc2[nH]cnc23)c1` stands 24.2%. The same measure for `COc1ccc(NC(=O)CCN=C2NS(=O)(=O)c3ccccc32)cc1S(=O)(=O)N(C)C`: 7.52%. The same measure for `COc1ccccc1Nc1nnc(Cc2ccccc2)c(=O)[nH]1`: 7.65%; for `CCN(CCn1cccn1)C(=O)CC1C(=O)NCCN1CCc1ccccc1` (stereo not shown): 6.34%; for `Cc1cc(/C=N/n2cnnc2)c(C)n1-c1cccc(C(=O)O)c1`: 13.6%. For the compound `CCC(CO)NCc1ccc2c(c1)n(C)c(=O)n2C.Cl` (stereo not shown), the “hERG current change (%, negative = inhibition) at 1uM” value is 19.1%. Under `C=CCn1cc(CN2CCC(C(=O)Nc3cccc(-c4cccc(Cl)c4)c3)CC2)c(C)n1` stands -30%; under `CCOC(=O)C1=C(C)NC(=O)NC1c1ccc(NC(C)=O)cc1` (stereo not shown), 11.6%. Take `O=C(Nc1ccccc1F)C1CCN(S(=O)(=O)c2cccnc2)CC1`: the “hERG current change (%, negative = inhibition) at 1uM” value is 14.5%. The same measure for `COc1ccc(N2C(=O)c3ccc(C(=O)Nc4ccccc4OC)cc3C2=O)cc1`: 18.5%; for `O=C(COn1nnc2ccc(S(=O)(=O)N3CCOCC3)cc21)NCCc1ccccc1`: 8.88%; for `CCOc1ccccc1NC(=O)C1CCCN(S(=O)(=O)c2ccc(-n3cnnn3)cc2)C1` (stereo not shown): 11.2%. The same measure for `O=C1NCCN1C(=O)C12CC3CC(CC(C3)C1)C2`: 5.8%; for `COC(=O)CN(c1cc(C(F)(F)F)ccc1Cl)S(C)(=O)=O`: 11.6%; for `CC1=NN(c2ccccc2)C(=O)C1N=Nc1ccc(S(N)(=O)=O)cc1` (stereo not shown): 4.25%. Consider `CC(=O)c1ccc(NC(=O)C2CCCN(S(=O)(=O)c3ccc(-n4cnnn4)cc3)C2)cc1` (stereo not shown), for which the “hERG current change (%, negative = inhibition) at 1uM” value worked out at 10.3%.

`CC(C)c1ccc(OCC(=O)NC(Cc2c[nH]c3ccccc23)C(=O)O)cc1` (stereo not shown): the “hERG current change (%, negative = inhibition) at 1uM” value was determined as 14.1%. With `COc1ccc(CCNS(=O)(=O)c2cccc(F)c2)cc1OC`, the “hERG current change (%, negative = inhibition) at 1uM” value was 3.77%. The same measure for `Oc1ccc(CN2CCN(Cc3ccccc3)CC2)c2cccnc12`: 7.56%.

In the case of `O=c1nc(Nc2ccc([N+](=O)[O-])cc2)[nH]c(=O)[nH]1`, the “hERG current change (%, negative = inhibition) at 1uM” value is listed as 9.16%. The same measure for `O=C(Nc1nnc(SCC(=O)N2CCCCC2)s1)c1ccc(F)cc1F`: 4.43%; for `COc1ccc(NC(=O)CNc2cc(C)ccc2C)cc1S(=O)(=O)N1CCOCC1`: 7.68%; for `O=C(C1=COCCO1)N1CCN(S(=O)(=O)c2cccc(Cl)c2Cl)CC1`: 6.31%. Under `Cn1c(CN2CCN(c3ccccc3NS(C)(=O)=O)CC2)nc2ccccc21` stands -32.2%; under `CCOC(=O)CSc1nc2cc3c(cc2cc1C#N)OCO3`, 1.14%. The same measure for `C1CCC(Nc2nnnn2C2CCCCC2)CC1`: 15.4%; for `COc1ccc(OC)c(S(=O)(=O)n2ccnc2C(C)C)c1`: 8.65%; for `O=C(CSc1ncccc1-c1nc2ccccc2[nH]1)N1CCc2ccccc21`: -3.17%. Consider `COCCN(CC(=O)Nc1cccc(C)c1C)C(=O)Cn1c(=O)cnc2ccccc21`, for which the “hERG current change (%, negative = inhibition) at 1uM” value is on record as 11.3%. With `C=CCn1c(=NC(=O)c2ccccc2[N+](=O)[O-])sc2cc(S(C)(=O)=O)ccc21`, the “hERG current change (%, negative = inhibition) at 1uM” value stood at 7.35%. As for `CCOC(=O)N1CCN(C(=O)c2cccc(NS(=O)(=O)c3ccc(F)c(F)c3)c2)CC1`, the “hERG current change (%, negative = inhibition) at 1uM” value is on record as 10.6%. As to `C/C(CC(=O)Nc1ccc(F)cc1F)=N\NC(=O)C(=O)N1CCCCC1`, the “hERG current change (%, negative = inhibition) at 1uM” value was 24.8%. As to `NC(=O)C1CC(=O)N(c2ccc(OCC(=O)Nc3cccc(C(F)(F)F)c3)cc2)C1` (stereo not shown), the “hERG current change (%, negative = inhibition) at 1uM” value is recorded as 9.25%. Under `CCCn1nnnc1SCC(=O)NNC(=O)c1ccco1` stands 10.8%; under `CN(C)c1nc(N)nc(CSc2nnnn2C)n1`, 6.78%. Consider `CCN1CCN(CCCNC(=O)C2c3ccccc3C(=O)N(C)C2c2ccc(OC)cc2)CC1` (stereo not shown), for which the “hERG current change (%, negative = inhibition) at 1uM” value was found to be 18.4%.
